# From PubChem BioAssay (NCATS)
# Values joined by “and” are separate entries in the source; they are usually repeats but may differ in a detail not shown here. Equal values may be shown once. The list shows a part of the results. Further columns of the screen follow, without active or inactive calls. For some of these results: The list favours compounds with an active or inconclusive main result. For some of these results: Words in brackets tell the shape of the fitted curve; partial curves, single points and poor fits give uncertain potencies.
# Key:
# [1] = qHTS Assay for Lipid Storage Modulators (AID 1519); conditions: Drosophila S3 cells, BODIPY lipid droplet/cell ratio, laser cytometry, cells loaded with oleic acid
# Summary of the method: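 Cells seeded at 5,000 per well were treated with compounds over a concentration series and loaded with oleic acid (400 uM, as added). Lipid droplet fluorescence (488 nm excitation, 500-530 nm channel) was read by laser-scanning cytometry and normalized to 20 uM Triacsin C.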
# [2] = qHTS Assay for Modulators of Human Peripheral Myelin Protein 22 (PMP22) Expression/Activity (AID 1967); conditions: Cell-based PMP22 reporter, dual-color luciferase ratio
# Summary of the method: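 Engineered MSC80 cells, Pmp22-promoter green and EF-alpha red luciferase reporters; 24h compound treatment at 37 °C. Concentration-response fits on green, red and ratio signals, each overlap-corrected, with %Activity normalized to untreated wells.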
# [3] = qHTS Validation Assay to Find Inhibitors of Chronic Active B-Cell Receptor Signaling (AID 485345); conditions: ABC-DLBCL cells, chronic BCR signaling reporter
# Summary of the method: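 TMD8 ABC-DLBCL cells stably carrying doxycycline-inducible IkappaBalpha–green luciferase fusion plus unfused red luciferase; compounds 46 uM to 3 nM, 4 h at 37C with doxycycline. Corrected green/red luminescence ratio normalized to 10 uM MG-132 and basal cell wells; curves fitted.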
# [4] = Nrf2 qHTS screen for inhibitors: Validation (AID 493153); conditions: A549 ARE-Fluc reporter, 18-24 h; AC50: CellTiter-Fluor fluorescence read, measured here: cytotoxicity CellTiter-Fluor AC50; viability change: measured here: cytotoxicity max response
# Summary of the method: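 Concentration-response on A549 ARE_Fluc reporter cells exposed 18-24 h at 37 C, 5% CO2. Cytotoxicity read first by CellTiter-Fluor fluorescence (Ex 405/Em 525), then Nrf2 inhibition by BugLite luminescence after 15 min.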
# [5] = qHTS drug screen for cell cycle checkpoint inhibitors in PARPi-resistant BRCA-mutant ovarian cancer cell lines. (AID 1963452); conditions: PEO1/OlaR viability, CellTiter-Glo luminescence, 96 h
# Summary of the method: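 PEO1, PEO4 and PEO1/OlaR ovarian cancer cells, 600 per well, exposed 96 h at 37C to a dilution series. Viability read by CellTiter-Glo luminescence, normalized to DMSO and empty wells; activity summarized as Z-AUC.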
# [6] = qHTS for identification of novel therapeutic agents for treatment of microphthalmiaassociated transcription factor (MiT) renal cell carcinoma (RCC) (AID 1963991); conditions: CellTiter-Glo, 48 h; for z-score: stronger effect = lower value
# Summary of the method: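 Three TFE3-fusion RCC lines (UOK109, UOK124, UOK145), 500 cells/well in complete medium, were treated with MIPE 4.0 compounds for 48 hours at 37 C. Viability was by CellTiter-Glo luminescence, normalized to DMSO (100%) and empty wells (0%); curves fitted over 11 concentrations.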
# [7] = qHTS assay for small molecule antagonists of androgen receptor signaling (AID 588516); conditions: AR-UAS-bla HEK293, beta-lactamase ratio, antagonist mode, 16 h
# Summary of the method: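 Antagonist mode: inhibition of R1881-stimulated (10 nM final) bla reporter in GeneBLAzer AR HEK 293 cells, 16 h at 37C, compounds titrated. IC50 and efficacy from Hill-equation fits of 405/460–530 nm FRET ratios.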
# [8] = qHTS assay for small molecule antagonists of glucocorticoid receptor signaling (AID 588533); conditions: HeLa MMTV-bla, GRE beta-lactamase ratio, antagonist mode, 18 h; measured here: W530 channel AC50;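 further: cells stimulated with 2 nM dexamethasone as agonist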
# [9] = qHTS assay for small molecule antagonists of peroxisome proliferator-activated receptor delta signaling (AID 588535); conditions: HEK293T PPARd-UAS-bla, beta-lactamase FRET ratio, 18 h; 460 nm channel;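 further: cells co-treated with a PPAR-delta agonist as stimulator during compound exposure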
# Summary of the method: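 Fluorescence from CCF4-loaded GeneBLAzer PPAR-delta-UAS-bla HEK293T cells (2 hrs RT loading) quantified reporter inhibition after an 18 hr, 37 C compound exposure across a titration.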
# [10] = qHTS assay for small molecule antagonists of peroxisome proliferator-activated receptor gamma signaling (AID 588537); conditions: HEK293 PPARg-UAS-bla, beta-lactamase ratio, antagonist mode; measured here: W460 blue channel
# Summary of the method: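 Fluorescence at 460 and 530 nm (405 nm excitation) reported beta-lactamase cleavage of CCF4 after 2 h room-temperature loading. HEK293 reporter cells in 1% charcoal/dextran-treated FBS had received compound and rosiglitazone for 16 h.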
# [11] = qHTS assay for small molecule agonists of retinoid X receptor alpha signaling (AID 588544); conditions: HEK293T RXRa-UAS-bla, beta-lactamase reporter, 18 h; 530 nm emission
# [12] = qHTS assay for small molecule antagonists of retinoid X receptor alpha signaling (AID 588546); conditions: HEK293T RXRa-UAS-bla, beta-lactamase ratio, antagonist mode; measured here: W530 green channel, cytotoxicity proxy;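 further: cells stimulated with 9-cis-retinoic acid as agonist; on the % scale 0 is the no-effect control and ±100 the full control effect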
# Summary of the method: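 Beta-lactamase reporter inhibition, read as CCF4 fluorescence ratio (ex 405, em 460/530 nm) after 2 h at RT. HEK293T UAS-bla cells, 2500/well, were stimulated with 9-cis-RA at 500 or 100 nM final alongside test compound for 18 h at 37 C.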
# [13] = S16 Schwann cell PMP22 intronic element beta-lactamase assay (AID 624044); conditions: S16 rat Schwann cells, PMP22 element beta-lactamase FRET, 24 h; further: nearly all actives have a fitted effect of over 15% in size
# Summary of the method: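 Beta-lactamase reporter under a PMP22 intronic regulatory element in stable S16 rat Schwann cells; 24 h compound exposure. 460 nm blue signal normalized between DMSO (0%) and potassium clavulanate, with 535 nm FRET tracking viability; curves classed by r2 and response.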
# [14] = measured here: cell count channel max response
# [15] = measured here: cell number channel AC50
# [16] = measured here: lipid (BODIPY) channel AC50
# [17] = measured here: lipid channel max response
# [18] = measured here: green reporter channel AC50, mouse Pmp22 promoter in mouse Schwann cells
# [19] = measured here: red reporter channel AC50, EF-alpha promoter control reporter in MSC80 mouse Schwann cells
# [20] = measured here: CBR control luciferase (viability counter)
# [21] = TFE3-RCC UOK109 viability, measured here: UOK109 Z-AUC
# [22] = TFE3-RCC viability, measured here: UOK124 Z-AUC
# [23] = TFE3-RCC viability, measured here: UOK145 Z-AUC
# [24] = TFE3-RCC viability, measured here: UOK145 cell viability
# [25] = measured here: PEO1 parental viability
# [26] = TFE3-RCC viability, measured here: UOK124 cell viability
# Tags describe the fitted curve by direction and shape.
structure (smiles),measurement,setting,value
O=C1c2ccccc2-c2n[nH]c3cccc1c23,max response,[1]; [14],53.2%
same,AC50,[1]; [15],"3.98 µM [rising, full curve]"
same,AC50,[1]; [16],"3.55 µM [rising, full curve]"
same,max response,[1]; [17],65.4%
same,AC50,[2]; [18],"1.69 µM [rising, full curve, poor fit]"
same,AC50,[2]; [19],"84.9 µM [falling, single point]"
same,AC50,[3]; measured here: CBG/CBR ratio read-out,"7.31 µM [falling, partial curve]"
same,AC50,[3]; [20],"23.1 µM [rising, partial curve, poor fit]"
same,viability change,[4],7.21%
same,AC50,[5]; measured here: PEO4 viability,"24.5 µM [falling, single point]"
same,z-score,[6]; [21],-0.624
same,z-score,[6]; [22],0.741
same,z-score,[6]; [23],-0.0908
same,AC50,[6]; [24],"20.9 µM [falling, partial curve]"
CCCCCCCCCCCC1=C(O)C(=O)C=C(O)C1=O,max response,[1]; [14],50%
same,AC50,[1]; [15],"15.8 µM [rising, full curve, poor fit]"
same,AC50,[1]; [16],"15.8 µM [rising, full curve, poor fit]"
same,max response,[1]; [17],69%
same,AC50,[5]; [25],"5.49 µM [rising, partial curve]"
same,z-score,[6]; [21],-0.671
same,z-score,[6]; [22],-0.965
same,AC50,[6]; [26],"4.18 µM [falling, partial curve]"
same,z-score,[6]; [23],0.109
same,AC50,[6]; [24],"2.64 µM [falling, full curve]"
COc1ccc(C(C)=O)c(O)c1,max response,[1]; [14],31%
same,AC50,[1]; [15],"15.8 µM [rising, partial curve, poor fit]"
same,AC50,[1]; [16],"22.4 µM [rising, partial curve, poor fit]"
same,max response,[1]; [17],57.8%
same,z-score,[6]; [21],-0.162
same,z-score,[6]; [22],0.735
same,z-score,[6]; [23],0.386
CC1=CC(=O)c2ccccc2C1=O,max response,[1]; [14],-96.4% and -31.7%
same,AC50,[1]; [15],"15.8 µM [falling, single point] and 5.62 µM [falling, partial curve, poor fit]"
same,AC50,[1]; [16],"15.8 µM [falling, single point]"
same,max response,[1]; [17],-109% and -64.6%
same,AC50,[5]; measured here: PEO4 viability,"15.5 µM [falling, partial curve, poor fit]"
same,z-score,[6]; [21],0.665
same,z-score,[6]; [22],0.327
same,AC50,[6]; [26],"20.9 µM [falling, partial curve]"
same,z-score,[6]; [23],-0.403
same,AC50,[6]; [24],"33.2 µM [falling, single point]"
CN(C)c1ccc(C(=C2C=CC(=[N+](C)C)C=C2)c2ccc(N(C)C)cc2)cc1,max response,[1]; [14],-106%
same,AC50,[1]; [15],"1.78 µM [falling, full curve]"
same,AC50,[1]; [16],"1.58 µM [falling, full curve]"
same,max response,[1]; [17],-103%
same,AC50,[7]; measured here: W460 blue channel fit,"14.1 µM [falling, partial curve]"
same,AC50,"[7]; measured here: W530 green channel, cytotoxicity/artifact","8.91 µM [rising, full curve] and 10 µM [rising, partial curve]"
same,AC50,[8],"28.2 µM [falling, full curve, poor fit] and 44.7 µM [falling, partial curve, poor fit]"
same,max response,[9],1.36% and -0.271%
same,AC50,[10],"50.1 µM [falling, single point] and 50.1 µM [falling, partial curve, poor fit]"
same,max response,[11],27.8% and -34.2%
same,max response,[12],-7.84% and -52%
same,AC50,[13]; measured here: 460 nm blue channel,"1.58 µM [falling, full curve]"
same,AC50,[13]; measured here: 530 nm viability channel,"1.41 µM [falling, full curve]"
same,AC50,[5]; [25],"0.245 µM [falling, full curve]"
same,AC50,[5]; measured here: PEO4 viability,"0.195 µM [falling, full curve]"
same,AC50,[6]; [26],"0.59 µM [falling, full curve]"
same,AC50,[6]; [24],"0.418 µM [falling, full curve]"
Clc1ccc(Cn2c(CN3CCCC3)nc3ccccc32)cc1,max response,[1]; [14],67.8%
same,AC50,[1]; [15],"2.82 µM [falling, full curve, poor fit]"
same,AC50,[1]; [16],"3.16 µM [falling, full curve, poor fit]"
same,max response,[1]; [17],73.2%
same,AC50,[2]; [18],"84.9 µM [falling, single point]"
same,AC50,[2]; [19],"75.7 µM [falling, partial curve, poor fit]"
same,AC50,[5]; [25],"19.5 µM [falling, single point]"
CN(C)CCOC(c1ccccc1)c1ccccc1,max response,[1]; [14],29%
same,AC50,[1]; [15],"2.82 µM [rising, full curve, poor fit]"
same,AC50,[1]; [16],"2.51 µM [rising, full curve, poor fit]"
same,max response,[1]; [17],30.1%
same,AC50,[2]; [19],"84.9 µM [falling, single point]"
same,max response,[12],8.58%
same,AC50,[5]; [25],"0.0098 µM [rising, full curve, poor fit]"
same,z-score,[6]; [21],-0.32
same,z-score,[6]; [22],0.742
same,z-score,[6]; [23],-0.0218
same,AC50,[6]; [24],"37.2 µM [falling, single point]"
COc1cc2c(cc1OC)[C@@H]1C(=O)c3ccc4c(c3O[C@@H]1CO2)C=CC(C)(C)O4,max response,[1]; [14],56%
same,AC50,[1]; [15],"0.794 µM [rising, full curve, poor fit]"
same,AC50,[1]; [16],"0.891 µM [falling, full curve, poor fit]"
same,max response,[1]; [17],-38.6%
same,AC50,[5]; [25],"0.219 µM [falling, full curve]"
same,AC50,[5]; measured here: PEO4 viability,"0.692 µM [falling, full curve, poor fit]"
same,z-score,[6]; [21],-0.0241
same,z-score,[6]; [22],-0.00519
same,AC50,[6]; [26],"0.0469 µM [falling, full curve, poor fit]"
same,z-score,[6]; [23],-0.105
same,AC50,[6]; [24],"37.2 µM [falling, single point]"
COc1ccccc1OCC(O)CN1CCN(CC(=O)Nc2c(C)cccc2C)CC1 (centres undefined),max response,[1]; [14],44.2%
same,AC50,[1]; [15],"44.7 µM [rising, partial curve, poor fit]"
same,AC50,[1]; [16],"39.8 µM [rising, partial curve, poor fit]"
same,max response,[1]; [17],49.6%
same,AC50,[2]; [19],"75.7 µM [falling, partial curve]"
same,AC50,[3]; [20],"16.4 µM [rising, partial curve]"
same,AC50,[5]; measured here: PEO4 viability,"0.049 µM [rising, full curve, poor fit]"
